Data as given in patent publication US10654893B2, “Self-assembling peptide compositions” (3-D MATRIX, LTD., priority 2014, dated 2020).
Some results were stated once for a whole list of compounds, not compound by compound.

Test: pH adjustment with 0.1 N NaOH, pH and visual observation
Type: physicochemical
Settings: pH adjusted with 0.1 N NaOH
Experimental: In this Example, pH levels of peptide compositions was adjusted, for example, by addition of 0.1 N NaOH to 2 mL of a 2.5% peptide composition. pH and appearance of the adjusted compositions were observed. An acidic salt was added if the pH level was higher than the desired level.
With certain compositions, when pH levels of peptide compositions were higher than 3.5 (RADA16 (SEQ ID NO:1) and KLD12 (SEQ ID NO:2)) or 3.7 (IEIK13 (SEQ ID NO:3)), the peptide compositions began phase separation (i.e. becoming cloudy). In some embodiments, provided peptide compositions have a pH within the range of about 3.0 to about 3.7 (particularly for IEIK13 (SEQ ID NO:3)), or about 3.0 to about 3.5 (particularly for RADA16 (SEQ ID NO:1) and/or KLD12 (SEQ ID NO:2)).

Substance: Arg-Ala-Asp-Ala-Arg-Ala-Asp-Ala-Arg-Ala-Asp-Ala-Arg-Ala-Asp-Ala [RADA16]
- pH level at which peptide compositions began phase separation (becoming cloudy): higher than 3.5
